Laboratory results published in article PMC4336329 (PLoS ONE, 2015).
Hit rate of the full screen: of about 310,000 compounds, about 2,200 (0.71%) showed an effect of 50% or more. The effect is printed as a negative number. This is one part of the list.

molecular target: human ether-à-go-go-related gene (hERG) potassium channel (human, UniProt Q12809); assay: primary screen, population patch clamp on CHO cells stably expressing hERG
Sequence (Q12809 whole entry, looked up): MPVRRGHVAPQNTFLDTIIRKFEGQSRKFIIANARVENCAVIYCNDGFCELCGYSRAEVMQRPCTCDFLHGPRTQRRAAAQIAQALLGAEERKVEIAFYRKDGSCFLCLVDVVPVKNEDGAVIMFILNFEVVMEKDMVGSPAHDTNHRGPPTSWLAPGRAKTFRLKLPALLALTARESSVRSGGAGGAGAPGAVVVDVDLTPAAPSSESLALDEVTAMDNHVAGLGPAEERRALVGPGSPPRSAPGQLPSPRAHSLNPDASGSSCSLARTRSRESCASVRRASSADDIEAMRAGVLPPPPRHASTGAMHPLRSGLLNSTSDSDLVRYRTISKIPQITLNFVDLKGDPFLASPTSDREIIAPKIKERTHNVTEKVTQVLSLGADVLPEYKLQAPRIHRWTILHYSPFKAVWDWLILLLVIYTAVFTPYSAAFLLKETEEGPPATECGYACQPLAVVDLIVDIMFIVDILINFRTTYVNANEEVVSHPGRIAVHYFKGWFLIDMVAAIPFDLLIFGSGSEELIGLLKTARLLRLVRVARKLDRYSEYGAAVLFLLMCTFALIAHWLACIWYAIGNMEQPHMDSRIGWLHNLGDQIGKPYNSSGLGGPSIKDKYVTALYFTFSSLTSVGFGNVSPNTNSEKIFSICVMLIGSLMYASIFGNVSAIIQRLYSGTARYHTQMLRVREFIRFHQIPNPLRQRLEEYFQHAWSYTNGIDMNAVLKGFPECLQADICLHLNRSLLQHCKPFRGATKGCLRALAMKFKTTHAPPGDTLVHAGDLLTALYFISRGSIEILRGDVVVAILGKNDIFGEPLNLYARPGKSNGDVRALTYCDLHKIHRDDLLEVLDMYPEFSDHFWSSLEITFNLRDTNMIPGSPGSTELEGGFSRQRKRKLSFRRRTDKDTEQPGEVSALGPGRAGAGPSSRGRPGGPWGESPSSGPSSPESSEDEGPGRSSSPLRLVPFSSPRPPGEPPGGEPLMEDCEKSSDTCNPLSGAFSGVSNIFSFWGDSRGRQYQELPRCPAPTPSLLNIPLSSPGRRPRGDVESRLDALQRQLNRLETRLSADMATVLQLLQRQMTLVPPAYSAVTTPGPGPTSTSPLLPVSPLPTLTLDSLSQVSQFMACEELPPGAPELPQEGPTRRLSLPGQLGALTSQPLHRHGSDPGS

| SMILES | hERG current change (%, negative = inhibition) at 1uM [%] |
| --- | --- |
| COc1cc(CNCc2ccc(OC)c3ccccc23)cc(OC)c1OC.O=C(O)C(=O)O | 5.04 |
| C=CCN1C(=O)/C(=C2/Sc3ccccc3N2CC)SC1=S | 16.3 |
| COc1ccccc1N1C(=O)C2CCC(c3ccccc3)CC2C1=O (stereo not drawn) | 6.4 |
| O=C(CCSc1ccc(Cl)cc1)N1CCN(S(=O)(=O)c2ccccc2)CC1 | -5.91 |
| Cc1nn(-c2ccccc2)c(C)c1NC(=O)c1ccc(S(=O)(=O)N2CCCC2)cc1 | 7.58 |
| CC(C)c1ccc(NC(=S)Nc2cccc3ccccc23)cc1 | 6.52 |
| O=C(CN(C(=O)c1nsc(Cl)c1Cl)c1ccc(F)cc1)NC1CCCC1 | 7.51 |
| Cc1nn(CCO)c2nc(-c3cccs3)cc(C(F)(F)F)c12 | 8.51 |
| [Br-].c1ccc(-c2c[n+]3c(n2-c2ccccc2)SCC3)cc1 | 4.69 |
| CN(Cc1cnn(C)c1)C(=O)C1CCC(=O)N(Cc2cccc(C(F)(F)F)c2)C1 (stereo not drawn) | 9.39 |
| Cc1cccnc1NC(=O)c1ccc(S(=O)(=O)N2CCC(C)CC2)cc1 | -2.92 |
| COc1cc(/C=C/C(=O)O)cc(S(=O)(=O)Nc2ccccc2Oc2ccccc2)c1OC | -7.73 |
| Cn1c(N)c(C(=O)c2ccc(Oc3ccccc3)cc2)c(=O)n(C)c1=O | 3.09 |
| O=C1C=C(NCc2ccc(Cl)c(Cl)c2)C2(CCCCC2)O1 | 12.3 |
| Cc1ccc(NC(=O)CSc2nc(CSc3ccc(C)cc3)cc(=O)[nH]2)cc1 | 11.9 |
| COC(=O)CNC(=O)CSc1nc2sc(-c3ccccc3)cc2c(=O)n1-c1ccccc1 | 11.6 |
| Cl.O=C(O)/C=C/c1ccc(Cn2ccnc2)cc1 | 1.68 |
| CCn1ccc(C(=O)Nc2ccccc2SC)n1 | -4.01 |
| Cc1cc(C(=O)N2CC=C(c3ccccc3)CC2)c2ccccc2n1 | -15 |
| Cc1ccc(Nc2nc(NCC3CCCO3)nc(N)c2[N+](=O)[O-])cc1 (stereo not drawn) | 17.7 |
| Cc1cc2cc(CN3C(=O)c4ccccc4C3=O)ccc2[nH]1 | 6.89 |
| Cc1ccc(/C=C/C(=O)N2CCC(Cc3ccccc3)CC2)cc1 | 9.28 |
| O=C(Nc1ccccc1C(=O)N1CCCC1)c1cccc(S(=O)(=O)N2CCCCCC2)c1 | 11.3 |
| C=CCOC(=O)C1=C(C)NC(=O)NC1/C=C/c1ccccc1OC (stereo not drawn) | 13.3 |
